Laboratory results as given in the supplement of paper PMC4967469.
IC50 is the fitted dose that halves viability relative to control wells, and lower means more sensitive; a fit beyond the top or the lowest dose is shown as a bound at that dose. The AUC spans the tested range (256-fold, ending at the top dose) of the same fit: 1 means no effect, lower means more sensitive. For part of these data: Any top dose called inferred was calculated from the reported fits. For part of these data: Where an entry number is given, a second screen of the drug exists; the two often differ.

Legend:
Assay in all cases: Viability of human cancer cell lines after 72 h of drug (GDSC screen)
OSI-930 = compound: O=C(Nc1ccc(OC(F)(F)F)cc1)c1sccc1NCc1ccnc2ccccc12 [OSI-930]; details: top dose 10.24 µM
Protocol: (§1)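 Human cancer cell lines in 384-well plates, medium with 10% serum, drug for 72 h over a 256-fold dose range (nine 2-fold or five 4-fold steps up to the top dose). Adherent lines were fixed and stained with the nucleic acid dye Syto60, suspension lines read with resazurin; signal relative to control wells, capped at 0 and 100%. One two-parameter sigmoid per drug and line, fitted in a mixed model over all curves with the slope shared within a line.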

Tamoxifen = compound: CC/C(=C(\c1ccccc1)c1ccc(OCCN(C)C)cc1)c1ccccc1 [Tamoxifen]; details: top dose 5 µM
Protocol: as §1

LAQ824 = compound: O=C(/C=C/c1ccc(CN(CCO)CCc2c[nH]c3ccccc23)cc1)NO [LAQ824]; details: top dose 1.024 µM; top dose inferred
Protocol: as §1

NSC-87877 = compound: O=S(=O)(O)c1ccc2cc(N=Nc3cc(S(=O)(=O)O)c4cccnc4c3O)ccc2c1 [NSC-87877]; details: top dose 16 µM; top dose inferred
Protocol: as §1

Elesclomol = compound: CN(NC(=O)CC(=O)NN(C)C(=S)c1ccccc1)C(=S)c1ccccc1 [Elesclomol]; details: top dose 0.2 µM; top dose inferred
Protocol: as §1

BX-912 = compound: O=C(Nc1cccc(Nc2ncc(Br)c(NCCc3cnc[nH]3)n2)c1)N1CCCC1 [BX-912]; details: top dose 10.24 µM; top dose inferred
Protocol: as §1

Masitinib = compound: Cc1ccc(NC(=O)c2ccc(CN3CCN(C)CC3)cc2)cc1Nc1nc(-c2cccnc2)cs1 [Masitinib]; details: top dose 20 µM
Protocol: as §1

Bleomycin = compound: Cc1c(N)nc([C@H](CC(N)=O)NC[C@H](N)C(N)=O)nc1C(=O)N[C@H](C(=O)N[C@H](C)[C@@H](O)[C@H](C)C(=O)N[C@H](C(=O)NCCc1nc(-c2nc(C(=O)NCCC[S+](C)C)cs2)cs1)[C@@H](C)O)[C@@H](OC1OC(CO)C(O)C(O)C1OC1OC(CO)C(O)C(OC(N)=O)C1O)c1cnc[nH]1 [Bleomycin]
Protocol: as §1

VNLG/124 = compound: CCCC(=O)OCc1ccc(OC(=O)/C=C(C)/C=C/C=C(C)/C=C/C2=C(C)CCCC2(C)C)cc1 [VNLG/124]; details: top dose 5.12 µM; top dose inferred
Protocol: as §1

[1] = top dose 50 µM, screen: GDSC drug entry 1378, top dose inferred
[2] = top dose 64 µM, screen: GDSC drug entry 190

| Cell Line | AUC (OSI-930) | IC50 (OSI-930) | AUC (Tamoxifen) | IC50 (Tamoxifen) | AUC (LAQ824) | IC50 (LAQ824) | AUC (NSC-87877) | IC50 (NSC-87877) | AUC (Elesclomol) | IC50 (Elesclomol) | AUC (BX-912) | IC50 (BX-912) | AUC (Masitinib) | IC50 (Masitinib) | AUC (Bleomycin; [1]) | IC50 (Bleomycin; [1]) | AUC (Bleomycin; [2]) | IC50 (Bleomycin; [2]) | AUC (VNLG/124) | IC50 (VNLG/124) |
| --- | --- | --- | --- | --- | --- | --- | --- | --- | --- | --- | --- | --- | --- | --- | --- | --- | --- | --- | --- | --- |
| SNU-449 (liver, adherent) | 0.963 | > 10.2 µM | 0.975 | > 5 µM | 0.431 | 0.0407 µM | 0.985 | > 16 µM | 0.533 | 0.0155 µM | 0.975 | > 10.2 µM | 0.888 | > 20 µM | 0.544 | 4.17 µM | 0.233 | 0.618 µM | 0.969 | > 5.12 µM |
| PCI-15A (head and neck, adherent) | 0.985 | > 10.2 µM | 0.986 | > 5 µM | 0.444 | 0.045 µM | 0.829 | 10.1 µM | 0.987 | > 0.2 µM | 0.924 | > 10.2 µM | 0.898 | > 20 µM | 0.149 | 0.252 µM | 0.341 | 1.44 µM | 0.987 | > 5.12 µM |
| KP-2 (pancreas, adherent) | 0.941 | > 10.2 µM | 0.981 | > 5 µM | 0.369 | 0.027 µM | 0.986 | > 16 µM | 0.542 | 0.0164 µM | 0.873 | > 10.2 µM | 0.909 | > 20 µM | 0.869 | > 50 µM | 0.851 | 55 µM | 0.963 | > 5.12 µM |
| JVM-2 (lymphoid neoplasm, suspension) | 0.931 | > 10.2 µM | 0.946 | > 5 µM | 0.837 | 0.926 µM | 0.971 | > 16 µM | 0.929 | > 0.2 µM | 0.855 | > 10.2 µM | 0.768 | 9.22 µM | 0.577 | 5.31 µM | 0.264 | 0.717 µM | 0.939 | > 5.12 µM |
| WM793B (melanoma, adherent) | 0.968 | > 10.2 µM | 0.981 | > 5 µM | 0.493 | 0.0613 µM | 0.965 | > 16 µM | 0.371 | 0.00531 µM | 0.921 | > 10.2 µM | 0.782 | 9.34 µM | 0.423 | 1.88 µM | 0.258 | 0.744 µM | 0.984 | > 5.12 µM |
| NCI-H187 (small cell lung carcinoma, suspension) | 0.988 | > 10.2 µM | 0.985 | > 5 µM | 0.51 | 0.0683 µM | 0.988 | > 16 µM | 0.969 | > 0.2 µM | 0.804 | 5.64 µM | 0.926 | > 20 µM | 0.961 | > 50 µM | 0.975 | > 64 µM | 0.988 | > 5.12 µM |
| G-292 Clone A141B1 (osteosarcoma, adherent) | 0.95 | > 10.2 µM | 0.972 | > 5 µM | 0.966 | > 1.02 µM | 0.912 | > 16 µM | 0.748 | 0.102 µM | 0.65 | 2.14 µM | 0.942 | > 20 µM | 0.669 | 12.4 µM | 0.905 | > 64 µM | 0.968 | > 5.12 µM |
| COLO-678 (large intestine, semi-adherent) | 0.985 | > 10.2 µM | 0.982 | > 5 µM | 0.804 | 0.699 µM | 0.934 | > 16 µM | 0.693 | 0.0515 µM | 0.981 | > 10.2 µM | 0.984 | > 20 µM | 0.682 | 11.8 µM | 0.77 | 31.5 µM | 0.985 | > 5.12 µM |
| Ca9-22 (head and neck, adherent) | 0.979 | > 10.2 µM | 0.975 | > 5 µM | 0.295 | 0.0178 µM | 0.98 | > 16 µM | 0.332 | 0.00444 µM | 0.965 | > 10.2 µM | 0.973 | > 20 µM | 0.196 | 0.427 µM | 0.282 | 1.02 µM | 0.987 | > 5.12 µM |
| NKM-1 (acute myeloid leukaemia, suspension) | 0.657 | 1.77 µM | 0.97 | > 5 µM | 0.246 | 0.0116 µM | 0.98 | > 16 µM | 0.473 | 0.0105 µM | 0.202 | 0.0816 µM | 0.834 | 13.6 µM | 0.582 | 5.28 µM | 0.051 | < 0.25 µM | 0.972 | > 5.12 µM |
| HOP-92 (large cell lung carcinoma, adherent) | 0.953 | > 10.2 µM | 0.962 | > 5 µM | 0.401 | 0.0326 µM | 0.984 | > 16 µM | 0.491 | 0.0117 µM | 0.97 | > 10.2 µM | 0.98 | > 20 µM | 0.495 | 3.02 µM | 0.599 | 7.82 µM | 0.98 | > 5.12 µM |
| A4-Fuk (B-cell lymphoma, suspension) | 0.98 | > 10.2 µM | 0.982 | > 5 µM | 0.273 | 0.0141 µM | 0.984 | > 16 µM | 0.84 | 0.147 µM | 0.818 | 6.07 µM | 0.932 | > 20 µM | 0.913 | > 50 µM | 0.761 | 23.7 µM | 0.917 | > 5.12 µM |
